Test results as given in PubChem BioAssay AID1963576 (National Center for Advancing Translational Sciences (NCATS), 2024).
The campaign covered roughly 46,000 compounds. About 60 (0.1%) were called active. Roughly 3% stayed inconclusive and do not appear here. Calls come from the whole dose curve; as a rule, active = well fitted inhibition curve with a large enough effect; inconclusive = small, poorly fitted or top-dose-only effect; inactive = no such curve, though single readings can be large or run the other way. This is one part of the list.

Test: Primary qHTS assay for Inhibitors of ovarian cancer metastasis using an organotypic tumor microenvironment (TME) model.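 For Potency: count of GFP cancer cells still attached after washing and fixation.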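 For activity change, negative = inhibition: plate controls were DMSO wells for no effect and tomatine positive control wells for full effect.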 Note: nearly all actives have a fitted effect of over 65% in size.
Settings: SKOV3ip1-GFP adhesion/invasion on 3D omental model, fluorescence; series mostly up to 45.8 µM; activity change, negative = inhibition: at the top concentration
Outline: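 qHTS, 4-pt dose (0.36-46 umol/L); SKOV3ip1-GFP, 1,200 cells/well, no FBS; primary omental fibroblast/mesothelial co-culture 48 h pre-grown; 2 h RT + 16 h 37 C; PBS wash, 4% PFA; GFP count 488/509 nm.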
Potency is the fitted concentration of half-maximal effect.

Compound | outcome | activity change, negative = inhibition | Potency
Clc1cccc(CSc2nc(NCCc3ccccc3)c3ccccc3n2)c1 | inactive | – | –
COc1ccccc1CNCc1ccc(C(=O)O)s1 | inactive | – | –
CC(C)c1ccc(NC(=O)CSc2ncnc3c2sc2ccccc23)cc1 | – | inactive: -9.55% | –
CC(C)CCOc1ccc(Cn2c(=O)sc3ccccc32)cc1 | – | inactive: 0.643% | –
CCOc1ccc(CCNC(=O)CSc2nc3ccccc3nc2Cc2ccc(C)cc2)cc1OCC | – | inactive: 1.6% | –
COc1ccc(-c2nc3sc(CCNC(=O)Cc4ccc(Cl)cc4)c(C)n3n2)cc1 | inactive | – | –
COc1ccc(C(=O)Nc2ccc(N3CCN(c4ccccc4)CC3)c(C(=O)O)c2)cc1 | – | inactive: -1.32% | –
COc1c(C)cccc1C(=O)Nc1ccc(Cl)c(-c2nc3cc(C)ccc3o2)c1 | – | inactive: -7.59% | –
CCOc1ccc(CCNC(=O)C(CC(C)C)N2Cc3ccccc3C2=O)cc1OCC (stereo not given) | inactive | – | –
CCN(CC)c1ccc(C(=O)NCc2ccc3c(c2)CCN3C(=O)c2cccc(C)c2)cc1 | – | inactive: -8.76% | –
CCOc1ccc(C2C(=O)N(C3CCCCCC3)CC(=O)N2Cc2ccc(F)cc2)cc1OC (stereo not given) | – | inactive: -5.35% | –
CCN(CC)c1ccc(NC(=O)CN(C)S(=O)(=O)c2cccc3nsnc23)c(C)c1 | – | inactive: -17% | –
Nc1nnc(SCC(=O)Nc2cccc(F)c2)s1 | – | inactive: 3.3% | –
Cc1ccc(NC(=O)C2CCCN(c3cnccn3)C2)cc1Cl (stereo not given) | – | inactive: 16.5% | –
Cc1ccc(CS(=O)Cc2ccc(C(=O)NCc3ccccc3Cl)o2)cc1 (stereo not given) | inactive | – | –
CCOc1ccc(NC(=O)CCc2nc3cccnc3n2Cc2ccc(OC)cc2)cc1 | – | inactive: 3.11% | –
O=C(O)COCCN1CCN(C(c2ccccc2)c2ccc(Cl)cc2)CC1 (stereo not given) | – | inactive: 0.747% | –
Cc1ccccc1CN1C(=O)c2ccccc2Sc2ccc(C(=O)O)cc21 | inactive | – | –
CC(C)c1ccc(NC(=O)C2CCN(S(=O)(=O)c3ccc(Br)s3)CC2)cc1 | – | inactive: -2.59% | –
Cc1ccc(S(=O)(=O)c2nnn3c2nc(NCc2ccccc2)c2sccc23)cc1 | – | inactive: 1.32% | –
O=S(=O)(c1cc(Br)c(Br)s1)N1CCN(c2ccccc2)CC1 | – | inactive: -24.1% | –
COc1ccccc1C(=O)Nc1cccc(OCc2cc(=O)n3c(C)csc3n2)c1 | – | inactive: -4.31% | –
Clc1ccc(Nc2nc(-c3ccccc3)c3ccccc3n2)c(Cl)c1 | – | inactive: 2.6% | –
CC(C)Cc1nn2c(=O)cc(COC(=O)c3ccccc3NC(=O)c3cccs3)nc2s1 | – | inactive: -44.8% | –

Compound | outcome | activity change, negative = inhibition | Potency
CCOc1ccccc1NC(=O)C(=O)c1cc(C)n(-c2cccc(C)c2C)c1C | – | inactive: -10.6% | –
CCOc1ccc(CCNC(=O)c2cc3cc4cc(OC)ccc4nc3s2)cc1OCC | inactive | – | –
CCc1nn2c(=O)cc(COC(=O)c3cccc(NC(=O)COc4ccccc4)c3)nc2s1 | – | inactive: -18.8% | –
COc1ccc(-c2noc(N3CCN(c4ccc(Cl)cc4)CC3)n2)cc1OC | inactive | – | –
COc1ccc2c(c1)CCc1c(C(=O)Nc3cnn(Cc4ccc(Cl)cc4Cl)c3)noc1-2 | – | inactive: -12.9% | –
COc1cccc(NC(=O)CCSc2nc(-c3ccco3)cc(C(F)(F)F)n2)c1 | – | inactive: -3.58% | –
COc1ccc(CNC(=O)C2CCN(S(=O)(=O)c3ccc4nc5c(c(C(=O)O)c4c3)CCCC5)CC2)cc1 | inactive | – | –
CCc1cccc(C)c1NC(=O)C1CCN(c2nnc(C)c3c(C)n(-c4ccccc4)nc23)CC1 | inactive | – | –
Cc1cc(C)cc(NC(=O)Cn2cc(C(=O)c3ccncc3)c(=O)c3cc(C)c(C)cc32)c1 | inactive | – | –
Cc1cccc(NC(=O)C2CCN(S(=O)(=O)c3ccc4[nH]c5c(c4c3)CCCCC5)CC2)c1 | – | inactive: -7.18% | –
Cc1ccccc1NC(=O)c1cc2sccc2n1Cc1ccc(F)cc1 | – | inactive: 7.08% | –
CN(c1ccccc1)S(=O)(=O)c1nnc(NC(=O)c2ccco2)s1 | – | inactive: 3.68% | –
CCCCCn1c(=O)[nH]c2cc(C(=O)N3CCN(c4cccc(Cl)c4)CC3)ccc2c1=O | – | inactive: 6.15% | –
COc1ccc(OC)c(CNC(=O)c2cc(S(=O)(=O)N3CCC(C)CC3)cn2C)c1 | inactive | – | –
COc1ccc(NC(=O)CCc2nc3c(C)nn(-c4ccc(C)cc4)c3n(C)c2=O)c(OC)c1 | – | inactive: 3.33% | –
CSc1nn(Cc2ccccc2C)c(NC(C)=O)c1S(=O)(=O)c1ccc(C)cc1 | – | inactive: 8.6% | –
CCOC(=O)CCn1c(=O)c2cccn2c2cccnc21 | – | inactive: 0.0409% | –
COc1cc2oc(=O)c(CC(=O)NCCc3ccccc3)c(C)c2cc1Cl | inactive | – | –
Cc1ccc(NC(=O)/C(C#N)=C\c2ccc(-c3ccc(Cl)cc3)o2)c(C)c1 | – | inactive: -5.95% | –
COCCNC(=O)CCCn1c(SCC(=O)c2ccc(F)cc2)nc2c(sc3ccccc32)c1=O | – | inactive: -10.2% | –
O=C(CCS(=O)(=O)c1nc(-c2cccs2)cc(C(F)(F)F)n1)Nc1ccc(Br)cc1 | – | – | active: 3.16 µM
Cc1ccc2nc(-c3ccsc3)c(Nc3ccc(C(C)C)cc3)n2c1 | – | inactive: -3.37% | –
COc1ccccc1C(=O)Nc1ccc2nc(SCC(=O)N3CCCC3)sc2c1 | – | inactive: -5.49% | –
N[C@@H]1CONC1=O | – | inactive: 11.1% | –

Compound | outcome | activity change, negative = inhibition | Potency
Cc1cc2cc(CCNS(=O)(=O)c3ccc(Br)cc3)c(=O)[nH]c2cc1C | – | inactive: -4.24% | –
COCCN1Cc2cccc(C(=O)Nc3ccc(C(=O)OC)cc3)c2C1=O | – | inactive: 8% | –
CCOc1ccc(-c2c(C)nn3c(C)c(C(=O)Nc4cccc(Cl)c4C)cnc23)cc1OCC | inactive | – | –
CCc1ccccc1NC(=O)C(C)n1c(=O)cc(C)c2c(C)nn(-c3ccccc3)c21 (stereo not given) | inactive | – | –
COC(=O)c1ccc(CSc2nc3c([nH]c4ccccc43)c(=O)n2-c2cccc(Cl)c2)o1 | inactive | – | –
CCOC(=O)C1CCCN(C(=O)Cn2ncc3c4ccccc4n(Cc4ccccc4)c3c2=O)C1 (stereo not given) | – | inactive: -6.69% | –
CCc1ccccc1NC(=O)CN1C(=O)CCSc2ccc(S(=O)(=O)N3CCCC3)cc21 | inactive | – | –
O=C(OCC1CCCO1)c1ccc2c(c1)N(Cc1ccccc1)C(=O)c1ccccc1S2(=O)=O (stereo not given) | – | inactive: -9.43% | –
CCN(CC)S(=O)(=O)c1ccc2c(c1)nc(CN(C)C(=O)Nc1ccc(C)c(F)c1)n2C | inactive | – | –
Cc1ccc(NC(=O)c2nc(S(C)(=O)=O)ncc2N(Cc2ccco2)Cc2cccs2)cc1C | – | inactive: -6.8% | –
COc1ccc(NC(=O)c2sc3nc(C(F)(F)F)cc(C)c3c2N)cc1OC | – | inactive: 0.69% | –
COc1ccc(N2CCN(C(=O)COCc3cc(-c4ccc5c(c4)OCO5)on3)CC2)cc1 | – | inactive: 2.51% | –
COc1ccccc1NC(=O)c1cc2c(C)nn(-c3ccccc3)c2s1 | – | inactive: -9.12% | –
CCn1nc(-c2ccccc2)c(-c2ccccc2)c(C(=O)Nc2ccc(NC(C)=O)cc2)c1=O | inactive | – | –
COCCCNC(=O)CSc1nc2cc3c(cc2c(=O)n1CCCC(=O)NCc1ccc2c(c1)OCO2)OCO3 | – | inactive: 9.46% | –
Cc1ccccc1OCCSc1nc2ccc(NC(=O)c3cccs3)cc2s1 | – | inactive: -8.39% | –
Cn1c(=O)cc(SCC(=O)N2CCN(c3ccccc3F)CC2)c2ccc(Cl)cc21 | – | inactive: 0.939% | –
O=C(NC1CCN(Cc2ccccc2)CC1)c1ccc(Cn2c(=O)c3ccccc3n(Cc3ccc(F)cc3)c2=O)cc1 | – | inactive: 2.51% | –
Cc1cc(C)cc(Oc2nc3ccccn3c(=O)c2/C=C(\C#N)c2nc3ccccc3s2)c1 | – | inactive: -5.71% | –
Cc1ccc(-c2csc(=Nc3ccccc3)n2Cc2ccc3c(c2)OCO3)cc1 | – | inactive: -17.8% | –
COc1ccc(OC)c(NC(=O)Nc2c(C)n(C)n(-c3ccccc3)c2=O)c1 | – | inactive: -5.71% | –
Cc1ccc(Cn2ccnc2SCC(=O)Nc2nnc(C)s2)cc1 | – | inactive: 6.76% | –
O=C(Cc1ccccc1)Nc1sc2c(c1C(=O)Nc1ccc(Br)cc1)CCCC2 | – | inactive: -2.93% | –
COc1ccc(CNC(=O)c2cc3sccc3n2Cc2ccc(C)cc2)cc1 | – | inactive: 2.77% | –

Compound | outcome | activity change, negative = inhibition | Potency
CC1(c2ccc(Cl)cc2)CC(C)(C)N(C(=O)c2cccc(F)c2)c2ccccc21 (stereo not given) | – | inactive: 6.1% | –
COCCCn1c(-c2ccc(S(=O)(=O)N3CCOCC3)cc2)csc1=Nc1ccccc1 | inactive | – | –
CN1CC[C@@H](c2c(O)cc(O)c3c(=O)cc(-c4ccccc4Cl)oc23)[C@@H](O)C1 | – | inactive: 16.9% | –
COc1ccc(C(=O)Oc2c(Sc3ccc(C)cc3)c(C)nn2C(C)(C)C)cc1OC | – | inactive: -4.65% | –
COc1ccccc1NC(=O)Cn1c(=O)n(CC(=O)NCc2ccccc2Cl)c(=O)c2sccc21 | – | inactive: 8.12% | –
O=C(c1ccc2c(c1)N(Cc1ccc(Cl)cc1)C(=O)c1ccccc1S2=O)N1CCCCC1 (stereo not given) | inactive | – | –
Cc1ccc2c(CNCc3ccc(C)o3)c(C(=O)O)n(Cc3ccc(F)cc3)c2c1 | – | inactive: -7.66% | –
CCOc1ccc(CNC(=O)c2cc(-c3ccc(Cl)s3)nc3ccccc23)cc1 | – | inactive: -9.03% | –
CC(=O)c1ccc(NS(=O)(=O)c2ccc(-n3cccn3)cc2)cc1 | – | inactive: 33.8% | –
Cc1ccccc1NC(=O)CSc1nc(-c2ccco2)nc2cc(=O)[nH]n12 | – | inactive: 8.92% | –
Cc1ccc(C(=O)Oc2cc(-c3ccc4c(c3)OCO4)cc(=O)c3c(C)oc(C)c23)cc1 | – | inactive: -14.1% | –
Cc1ccc(C(=O)NC2(C(F)(F)F)N=C(c3ccccc3)N(Cc3ccccc3)C2=O)cc1 (stereo not given) | inactive | – | –
CCOc1ccc(NC(=O)Cn2c(=O)n(CCCS(=O)(=O)C3CCCCC3)c(=O)c3ccccc32)cc1 | inactive | – | –
COc1ccc(CCNC(=O)CCCn2nc(C)c3sc4ccccc4c3c2=O)c(OC)c1 | – | inactive: 3.61% | –
CCOc1ccc(-c2cc(CCCC(=O)NCCc3cc(OC)c(OC)c(OC)c3)no2)cc1 | – | inactive: -0.615% | –
Cc1ccc(NC(=O)Cn2cc(C(=O)C3CCCCC3)c3ccccc32)cc1 | – | inactive: 3.47% | –
CCOC(=O)C1CCN(C(c2ccc(C)cc2)c2c(O)cc(C)n(CCOC)c2=O)CC1 (stereo not given) | – | inactive: -9.21% | –
Cc1cccc(NC(=O)CCNS(=O)(=O)c2ccc3c(c2)CCN3C(=O)C2CC2)c1 | inactive | – | –
Cc1ccc(-n2ncc3c(N4CCC(Cc5ccccc5)CC4)ncnc32)cc1C | – | inactive: 7.54% | –
Cc1cccc(N(C)C(=O)Cc2c(C(=O)O)[nH]c3ccccc23)c1 | – | inactive: 4.46% | –
Cc1ccc(OC(=O)CSc2nnc(-c3ccc4c(c3)OCO4)o2)cc1 | – | inactive: -1.01% | –
Cc1ccc(NC(=O)C2CCC(CNS(=O)(=O)c3cccc4nsnc34)CC2)c(Cl)c1 (stereo not given) | – | inactive: 13.4% | –
COC(=O)c1c(C)oc2ccc(N(C(=O)c3ccncc3)S(=O)(=O)c3cc(C)ccc3C)cc12 | inactive | – | –
